# Results: the supplement of paper PMC8728848
# The list shows a part of the results.
# Tests used:
# Experiment in all cases: glycan array binding signal (z-score within array); higher = stronger binding
# Conditions in all cases: glycan notation: IUPAC condensed, linker removed
# [1] = target: Neu5Ac(a2-6)Gal(b1-4)GlcNAc(b1-2)Man(a1-3)[GlcNAc(b1-4)][Neu5Ac(a2-6)Gal(b1-4)GlcNAc(b1-2)Man(a1-6)]Man(b1-4)GlcNAc(b1-4)GlcNAc
# Outline: (§1)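 Arrays were curated from the Consortium for Functional Glycomics database, 3228 in total, and kept only where the protein sequence was available. Binding is expressed as a within-array Z-score. This score was averaged across arrays of the same protein sequence at different concentrations or buffers and across linkers, and negative values can be read as non-binding.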
# [2] = target: Neu5Ac(a2-6)Gal(b1-4)GlcNAc(b1-2)Man(a1-3)[Man(a1-6)]Man(b1-4)GlcNAc(b1-4)GlcNAc
# Outline: as §1
# [3] = target: Neu5Ac(a2-6)Gal(b1-4)GlcNAc(b1-2)Man(a1-3)[Neu5Ac(a2-3)Gal(b1-4)GlcNAc(b1-2)Man(a1-6)]Man(b1-4)GlcNAc(b1-4)GlcNAc
# Outline: as §1
# [4] = target: Neu5Ac(a2-6)Gal(b1-4)GlcNAc(b1-2)Man(a1-3)[Neu5Ac(a2-6)Gal(b1-4)GlcNAc(b1-2)Man(a1-6)]Man(b1-4)GlcNAc(b1-4)GlcNAc
# Outline: as §1
# [5] = target: Neu5Ac(a2-6)Gal(b1-4)GlcNAc(b1-2)Man(a1-3)[Neu5Ac(a2-6)Gal(b1-4)GlcNAc(b1-2)Man(a1-6)]Man(b1-4)GlcNAc(b1-4)[Fuc(a1-6)]GlcNAc
# Outline: as §1
# [6] = target: Neu5Ac(a2-6)Gal(b1-4)GlcNAc(b1-2)Man(a1-6)Man(b1-4)GlcNAc(b1-4)GlcNAc
# Outline: as §1
# [7] = target: Neu5Ac(a2-6)Gal(b1-4)GlcNAc(b1-2)Man(a1-6)[Gal(b1-4)GlcNAc(b1-2)Man(a1-3)]Man(b1-4)GlcNAc(b1-4)GlcNAc
# Outline: as §1
# [8] = target: Neu5Ac(a2-6)Gal(b1-4)GlcNAc(b1-2)Man(a1-6)[GlcNAc(b1-2)Man(a1-3)]Man(b1-4)GlcNAc(b1-4)GlcNAc
# Outline: as §1
# [9] = target: Neu5Ac(a2-6)Gal(b1-4)GlcNAc(b1-2)Man(a1-6)[Man(a1-3)]Man(b1-4)GlcNAc(b1-4)GlcNAc
# Outline: as §1
# [10] = target: Neu5Ac(a2-6)Gal(b1-4)GlcNAc(b1-2)[Neu5Ac(a2-6)Gal(b1-4)GlcNAc(b1-4)]Man(a1-3)[GlcNAc(b1-4)][Neu5Ac(a2-6)Gal(b1-4)GlcNAc(b1-2)[Neu5Ac(a2-6)Gal(b1-4)GlcNAc(b1-6)]Man(a1-6)]Man(b1-4)GlcNAc(b1-4)GlcNAc
# Outline: as §1
# [11] = target: Neu5Ac(a2-6)Gal(b1-4)GlcNAc(b1-2)[Neu5Ac(a2-6)Gal(b1-4)GlcNAc(b1-4)]Man(a1-3)[GlcNAc(b1-4)][Neu5Ac(a2-6)Gal(b1-4)GlcNAc(b1-4)Man(a1-6)]Man(b1-4)GlcNAc(b1-4)GlcNAc
# Outline: as §1
# [12] = target: Neu5Ac(a2-6)Gal(b1-4)GlcNAc(b1-2)[Neu5Ac(a2-6)Gal(b1-4)GlcNAc(b1-6)]Man(a1-6)[Neu5Ac(a2-6)Gal(b1-4)GlcNAc(b1-2)Man(a1-3)][GlcNAc(b1-4)]Man(b1-4)GlcNAc(b1-4)GlcNAc
# Outline: as §1
# [13] = target: Neu5Ac(a2-6)Gal(b1-4)GlcNAc(b1-3)Gal(b1-3)GlcNAc
# Outline: as §1
# [14] = target: Neu5Ac(a2-6)Gal(b1-4)GlcNAc(b1-3)Gal(b1-4)GlcNAc
# Outline: as §1
# [15] = target: Neu5Ac(a2-6)Gal(b1-4)GlcNAc(b1-3)Gal(b1-4)GlcNAc(b1-2)Man(a1-3)[Neu5Ac(a2-6)Gal(b1-4)GlcNAc(b1-3)Gal(b1-4)GlcNAc(b1-2)Man(a1-6)]GalNAc
# Outline: as §1
# [16] = target: Neu5Ac(a2-6)Gal(b1-4)GlcNAc(b1-3)Gal(b1-4)GlcNAc(b1-3)Gal(b1-4)GlcNAc
# Outline: as §1
# [17] = target: Neu5Ac(a2-6)Gal(b1-4)GlcNAc(b1-3)Gal(b1-4)GlcNAc(b1-3)Gal(b1-4)GlcNAc(b1-2)Man(a1-3)[Neu5Ac(a2-6)Gal(b1-4)GlcNAc(b1-3)Gal(b1-4)GlcNAc(b1-3)Gal(b1-4)GlcNAc(b1-2)Man(a1-6)]GalNAc
# Outline: as §1
# [18] = target: Neu5Ac(a2-6)Gal(b1-4)GlcNAc(b1-3)Gal(b1-4)GlcNAc(b1-3)GalNAc
# Outline: as §1
# [19] = target: Neu5Ac(a2-6)Gal(b1-4)GlcNAc(b1-3)Gal(b1-4)GlcNAc(b1-3)[Neu5Ac(a2-6)Gal(b1-4)GlcNAc(b1-3)Gal(b1-4)GlcNAc(b1-6)]GalNAc
# Outline: as §1
# [20] = target: Neu5Ac(a2-6)Gal(b1-4)GlcNAc(b1-3)Gal(b1-4)GlcNAc(b1-6)[Gal(b1-3)]GalNAc
# Outline: as §1
# [21] = target: Neu5Ac(a2-6)Gal(b1-4)GlcNAc(b1-3)Gal(b1-4)[Fuc(a1-3)]GlcNAc(b1-3)Gal(b1-4)[Fuc(a1-3)]GlcNAc
# Outline: as §1
# [22] = target: Neu5Ac(a2-6)Gal(b1-4)GlcNAc(b1-3)GalNAc
# Outline: as §1
# [23] = target: Neu5Ac(a2-6)Gal(b1-4)GlcNAc(b1-3)[Neu5Ac(a2-6)Gal(b1-4)GlcNAc(b1-6)]GalNAc
# Outline: as §1
# [24] = target: Neu5Ac(a2-6)Gal(b1-4)GlcNAc(b1-6)GalNAc
# Outline: as §1
# [25] = target: Neu5Ac(a2-6)Gal(b1-4)GlcNAc(b1-6)[Gal(b1-3)GlcNAc(b1-3)]Gal(b1-4)Glc
# Outline: as §1
# [26] = target: Neu5Ac(a2-6)Gal(b1-4)GlcNAc(b1-6)[Gal(b1-3)]GalNAc
# Outline: as §1
# [27] = target: Neu5Ac(a2-6)Gal(b1-4)GlcNAc6S
# Outline: as §1
# [28] = target: Neu5Ac(a2-6)GalNAc
# Outline: as §1
# [29] = target: Neu5Ac(a2-6)GalNAc(b1-4)GlcNAc
# Outline: as §1
# [30] = target: Neu5Ac(a2-6)GalNAc(b1-4)GlcNAc6S
# Outline: as §1
# [31] = target: Neu5Ac(a2-6)GlcNAc(b1-4)GlcNAc
# Outline: as §1
binder,measurement,setting,value
"AT5G01260(PC)(40) (Arabidopsis thaliana), Q9LFB0 (protein) MIGIGRTLTSSSPSKIILEDLPPGIYRYGTEIFTSVPRKTFHHIKFLRLDSAQSSRILKPVPLRSSSIKDSQVNVEDEEIEASNKTVRVRFQLRKECVFGEHFFIVGDDPVFGGLWDPETALPLNWSDGNVWTVDLDLPVGRLVEFKLLLKAQTGEILWQPGPNRALETWETNKTIRICEDWDNADLQMMIEEDFVPYTNISSIGSEDEDEVLGSVQQNSSVVAVENAGYVSDESAQNSSFSIQSEKTMEPSNGALTAREVIKEAMFTEEESPVLVPGLIPLSDLDNEQVEVINEGKAETFPEVDKKQEPKAERNKKAKVKAISLFEKSEQEAVKSVEQRQYNAVEEEQQRLETEPLGTPDVLFENDIQWGRRTLYKLLSNFRLF",glycan array binding signal (z-score),[1],-0.702
same,glycan array binding signal (z-score),[2],0.32
same,glycan array binding signal (z-score),[3],-0.259
same,glycan array binding signal (z-score),[4],0.093
same,glycan array binding signal (z-score),[5],0.727
same,glycan array binding signal (z-score),[6],-0.415
same,glycan array binding signal (z-score),[7],-0.165
same,glycan array binding signal (z-score),[8],-0.22
same,glycan array binding signal (z-score),[9],-0.27
same,glycan array binding signal (z-score),[10],-0.782
same,glycan array binding signal (z-score),[11],-0.428
same,glycan array binding signal (z-score),[12],-0.36
same,glycan array binding signal (z-score),[13],0.853
same,glycan array binding signal (z-score),[14],0.343
same,glycan array binding signal (z-score),[15],0.243
same,glycan array binding signal (z-score),[16],-0.48
same,glycan array binding signal (z-score),[17],0.183
same,glycan array binding signal (z-score),[18],-0.429
same,glycan array binding signal (z-score),[19],-0.22
same,glycan array binding signal (z-score),[20],-0.628
same,glycan array binding signal (z-score),[21],-0.054
same,glycan array binding signal (z-score),[22],0.256
same,glycan array binding signal (z-score),[23],0.077
same,glycan array binding signal (z-score),[24],-0.851
same,glycan array binding signal (z-score),[25],-0.442
same,glycan array binding signal (z-score),[26],-0.226
same,glycan array binding signal (z-score),[27],0.483
same,glycan array binding signal (z-score),[28],-0.152
same,glycan array binding signal (z-score),[29],-0.024
same,glycan array binding signal (z-score),[30],-0.189
same,glycan array binding signal (z-score),[31],-0.632
